# Among all 310,000 compounds or so, about 18,000 (5.8%) were called active. Inconclusive results, whose numbers are uncertain, are shown with a selection of clear calls. Calls come from the whole dose curve; as a rule, active = well fitted inhibition curve with a large enough effect; inconclusive = small, poorly fitted or top-dose-only effect, or another doubt; inactive = no such curve, though single readings can be large or run the other way. No potency is given beside an inconclusive call; the fits are too rough.
# Assay: Primary qHTS for delayed death inhibitors of the malarial parasite plastid, 48 hour incubation
# Conditions: P. falciparum luciferase growth in erythrocytes; series mostly up to 28.7 µM
# Outline: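 Erythrocytes infected with P. falciparum carrying an integrated firefly luciferase reporter (2% hematocrit, 0.1% parasitemia final) were exposed to compounds in RPMI 1640 with 0.5% Albumax at 37 C, 5% CO2. Growth inhibition was scored as reduced luminescence.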
# Potency is the fitted concentration of half-maximal effect; tags give direction and shape of the fitted curve.
row,SMILES,Potency
1,CC(C)c1ccc(NC(=O)C2CCCN(S(=O)(=O)c3cccnc3)C2)cc1 (stereo not given),"inconclusive [inhibitor, partial curve, poor fit]"
2,COCc1ccc(-c2c(-c3ccccc3OC)sc3cc4c(cc23)OCO4)cc1,"inconclusive [inhibitor, partial curve, poor fit]"
3,CCOn1c(=O)c(-c2cccc([N+](=O)[O-])c2)[n+]([O-])c2ccccc21,inactive
4,NC(=O)CC(NC(=O)c1ccccc1)c1ccc(NCCOc2ccccc2)c([N+](=O)[O-])c1 (stereo not given),"inconclusive [inhibitor, partial curve]"
5,COc1ccc(Br)cc1CNc1ccc2[nH]c(=O)[nH]c2c1,inactive
6,Nc1ccc(Cl)c(NC(=O)c2cccs2)c1,inactive
7,Cc1ccc(-n2c(SCC(=O)Nc3cc(C)on3)nc3c(c2=O)SC(C)C3)cc1 (stereo not given),active: 0.828 µM
8,COc1ccc(CN2CCNC(=O)C2CC(=O)NCc2cc(C)n(C)n2)c(F)c1 (stereo not given),inactive
9,Cc1ccc(CC2CC(=O)N(c3nc4ccccc4s3)C2=O)cc1 (stereo not given),inactive
10,Cc1ccccc1Cn1c(NC2CCCC2)nc2c1c(=O)[nH]c(=O)n2C,inactive
11,Cc1c(O)ccc2c(CC(=O)N[C@@H](Cc3ccccc3)C(=O)O)cc(=O)oc12,inactive
12,COc1ccc(N(CC(=O)Nc2ccc(OC)c(OC)c2)S(=O)(=O)c2ccccc2)cc1Cl,"inconclusive [inhibitor, single point]"
13,COc1ccccc1N1CCN(C(=O)C(NS(=O)(=O)c2cccs2)c2ccccc2)CC1 (stereo not given),"inconclusive [inhibitor, partial curve]"
14,O=c1[nH]c(O)c(N=Nc2ccc([N+](=O)[O-])cc2)c(=O)[nH]1,"inconclusive [inhibitor, single point]"
15,Cc1cccc(C)c1NC(=O)C1(N(Cc2ccco2)C(=O)CC2NC(=O)NC2=O)CCCCC1 (stereo not given),"inconclusive [inhibitor, single point]"
16,CCOc1ccc(N/C(C)=C\C(=O)c2ccc3c(c2)OCCO3)cc1,"inconclusive [inhibitor, partial curve, poor fit]"
17,COc1ccc(C2C(C(=O)Nc3cccc(C)n3)c3ccccc3C(=O)N2C)cc1OC (stereo not given),"inconclusive [inhibitor, single point]"
18,CC1=NCCc2c1[nH]c1ccccc21,inactive
19,Cc1ccc(C)c(OCCC(=O)Nc2cccc(S(=O)(=O)N3CCCC3)c2)c1,"inconclusive [inhibitor, single point]"
20,C=CCNc1nc(N(c2ccccc2)c2ccccc2)nc(-n2ccnc2)n1,"inconclusive [inhibitor, partial curve, poor fit]"

# — PubChem BioAssay AID504832 (National Center for Advancing Translational Sciences (NCATS), 2011)
